Laboratory results: the supplement of paper PMC4967469
Lines with a small IC50 respond at low doses; a limit (>, <) means that the fit lies beyond the doses tested. For AUC the same curve is integrated over the 256-fold range of doses and scaled to a fraction: 1 means no effect, lower means more sensitive.

Compound: CC[C@H](Nc1ncnc2[nH]cnc12)c1nc2cccc(F)c2c(=O)n1-c1ccccc1 [CAL-101]
Assay: Viability of human cancer cell lines after 72 h of drug (GDSC screen)
Protocol: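 Human cancer cell lines in 384-well plates, medium with 10% serum, drug for 72 h over a 256-fold dose range (nine 2-fold or five 4-fold steps up to the top dose). Adherent lines were fixed and stained with the nucleic acid dye Syto60, suspension lines read with resazurin; signal relative to control wells, capped at 0 and 100%. One two-parameter sigmoid per drug and line, fitted in a mixed model over all curves with the slope shared within a line.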

Cell Line | AUC | IC50 [µM]
SIMA (neuroblastoma, adherent, top dose 20 µM) | 0.982 | > 20
SISO (cervix, adherent, top dose 20 µM) | 0.982 | > 20
SJRH30 (rhabdomyosarcoma, adherent, top dose 20 µM) | 0.968 | > 20
SJSA-1 (bone, adherent, top dose 20 µM) | 0.956 | > 20
SK-CO-1 (large intestine, adherent, top dose 20 µM) | 0.989 | > 20
SK-ES-1 (Ewing sarcoma, semi-adherent, top dose 20 µM) | 0.961 | > 20
SK-GT-4 (oesophagus, adherent, top dose 20 µM) | 0.943 | > 20
SK-HEP-1 (liver, adherent, top dose 20 µM) | 0.989 | > 20
SK-LMS-1 (soft tissue, adherent, top dose 20 µM) | 0.872 | 17.4
SK-LU-1 (lung adenocarcinoma, adherent, top dose 20 µM) | 0.973 | > 20
SK-MEL-1 (melanoma, suspension, top dose 20 µM) | 0.993 | > 20
SK-MEL-2 (melanoma, adherent, top dose 20 µM) | 0.977 | > 20
SK-MEL-3 (melanoma, adherent, top dose 20 µM) | 0.98 | > 20
SK-MEL-5 (melanoma, adherent, top dose 20 µM) | 0.964 | > 20
SK-MEL-24 (melanoma, adherent, top dose 20 µM) | 0.973 | > 20
SK-MEL-28 (melanoma, adherent, top dose 20 µM) | 0.978 | > 20
SK-MEL-30 (melanoma, adherent, top dose 20 µM) | 0.94 | > 20
SK-MES-1 (lung squamous cell carcinoma, adherent, top dose 20 µM) | 0.915 | > 20
SK-MG-1 (glioma, adherent, top dose 20 µM) | 0.987 | > 20
SK-MM-2 (myeloma, suspension, top dose 20 µM) | 0.884 | > 20

Cell Line | AUC | IC50 [µM]
SK-N-AS (neuroblastoma, adherent, top dose 20 µM) | 0.936 | > 20
SK-N-DZ (neuroblastoma, adherent, top dose 20 µM) | 0.988 | > 20
SK-N-FI (neuroblastoma, adherent, top dose 20 µM) | 0.97 | > 20
SK-N-SH (neuroblastoma, adherent, top dose 20 µM) | 0.953 | > 20
SK-PN-DW (Ewing sarcoma, adherent, top dose 20 µM) | 0.96 | > 20
SK-UT-1 (soft tissue, adherent, top dose 20 µM) | 0.986 | > 20
SKG-IIIa (cervix, adherent, top dose 20 µM) | 0.981 | > 20
SKN (uterus, adherent, top dose 20 µM) | 0.89 | > 20
SKN-3 (head and neck, adherent, top dose 20 µM) | 0.958 | > 20
SLVL (B-cell lymphoma, suspension, top dose 20 µM) | 0.825 | 12.9
SN12C (kidney, adherent, top dose 20 µM) | 0.973 | > 20
SNB75 (glioma, adherent, top dose 20 µM) | 0.944 | > 20
SNG-M (endometrium, adherent, top dose 20 µM) | 0.935 | > 20
SNU-61 (large intestine, adherent, top dose 20 µM) | 0.979 | > 20
SNU-81 (large intestine, adherent, top dose 20 µM) | 0.787 | 12.2
SNU-175 (large intestine, suspension, top dose 20 µM) | 0.98 | > 20
SNU-182 (liver, adherent, top dose 10.24 µM) | 0.952 | > 10.2
SNU-387 (liver, adherent, top dose 20 µM) | 0.895 | > 20
SNU-398 (liver, adherent, top dose 20 µM) | 0.983 | > 20
SNU-407 (large intestine, adherent, top dose 20 µM) | 0.929 | > 20

Cell Line | AUC | IC50 [µM]
SNU-423 (liver, adherent, top dose 20 µM) | 0.854 | > 20
SNU-449 (liver, adherent, top dose 20 µM) | 0.985 | > 20
SNU-475 (liver, adherent, top dose 20 µM) | 0.973 | > 20
SNU-1040 (large intestine, adherent, top dose 20 µM) | 0.888 | > 20
SNU-C1 (large intestine, suspension, top dose 20 µM) | 0.96 | > 20
SNU-C2B (large intestine, adherent, top dose 20 µM) | 0.965 | > 20
SNU-C5 (large intestine, adherent, top dose 20 µM) | 0.967 | > 20
SR (lymphoid neoplasm, suspension, top dose 20 µM) | 0.824 | 10.3
ST486 (Burkitt lymphoma, suspension, top dose 20 µM) | 0.925 | > 20
STS-0421 (soft tissue, adherent, top dose 20 µM) | 0.947 | > 20
SU8686 (pancreas, adherent, top dose 20 µM) | 0.975 | > 20
SU-DHL-1 (anaplastic large cell lymphoma, suspension, top dose 20 µM) | 0.959 | > 20
SU-DHL-8 (B-cell lymphoma, suspension, top dose 20 µM) | 0.824 | 10.8
SU-DHL-10 (B-cell lymphoma, suspension, top dose 20 µM) | 0.607 | 2.26
SU-DHL-16 (B-cell lymphoma, suspension, top dose 20 µM) | 0.978 | > 20
SUIT-2 (pancreas, adherent, top dose 20 µM) | 0.924 | > 20
SUP-B15 (lymphoblastic leukaemia, suspension, top dose 20 µM) | 0.771 | 7.33
SUP-HD1 (Hodgkin lymphoma, suspension, top dose 20 µM) | 0.947 | > 20
SUP-M2 (anaplastic large cell lymphoma, suspension, top dose 20 µM) | 0.893 | 13.9
SUP-T1 (T-cell lymphoblastic leukaemia, suspension, top dose 20 µM) | 0.938 | > 20
